According to PMC4336329 (PLoS ONE, 2015):
The campaign covered roughly 310,000 compounds. About 2,200 (0.71%) showed an effect of 50% or more. Effects have a minus sign here. The list shows a part of the results.

Biological target: human ether-à-go-go-related gene (hERG) potassium channel (human, UniProt Q12809)
Test: primary screen, population patch clamp on CHO cells stably expressing hERG

Sequence of human ether-à-go-go-related gene (hERG) potassium channel (Q12809 whole entry, looked up): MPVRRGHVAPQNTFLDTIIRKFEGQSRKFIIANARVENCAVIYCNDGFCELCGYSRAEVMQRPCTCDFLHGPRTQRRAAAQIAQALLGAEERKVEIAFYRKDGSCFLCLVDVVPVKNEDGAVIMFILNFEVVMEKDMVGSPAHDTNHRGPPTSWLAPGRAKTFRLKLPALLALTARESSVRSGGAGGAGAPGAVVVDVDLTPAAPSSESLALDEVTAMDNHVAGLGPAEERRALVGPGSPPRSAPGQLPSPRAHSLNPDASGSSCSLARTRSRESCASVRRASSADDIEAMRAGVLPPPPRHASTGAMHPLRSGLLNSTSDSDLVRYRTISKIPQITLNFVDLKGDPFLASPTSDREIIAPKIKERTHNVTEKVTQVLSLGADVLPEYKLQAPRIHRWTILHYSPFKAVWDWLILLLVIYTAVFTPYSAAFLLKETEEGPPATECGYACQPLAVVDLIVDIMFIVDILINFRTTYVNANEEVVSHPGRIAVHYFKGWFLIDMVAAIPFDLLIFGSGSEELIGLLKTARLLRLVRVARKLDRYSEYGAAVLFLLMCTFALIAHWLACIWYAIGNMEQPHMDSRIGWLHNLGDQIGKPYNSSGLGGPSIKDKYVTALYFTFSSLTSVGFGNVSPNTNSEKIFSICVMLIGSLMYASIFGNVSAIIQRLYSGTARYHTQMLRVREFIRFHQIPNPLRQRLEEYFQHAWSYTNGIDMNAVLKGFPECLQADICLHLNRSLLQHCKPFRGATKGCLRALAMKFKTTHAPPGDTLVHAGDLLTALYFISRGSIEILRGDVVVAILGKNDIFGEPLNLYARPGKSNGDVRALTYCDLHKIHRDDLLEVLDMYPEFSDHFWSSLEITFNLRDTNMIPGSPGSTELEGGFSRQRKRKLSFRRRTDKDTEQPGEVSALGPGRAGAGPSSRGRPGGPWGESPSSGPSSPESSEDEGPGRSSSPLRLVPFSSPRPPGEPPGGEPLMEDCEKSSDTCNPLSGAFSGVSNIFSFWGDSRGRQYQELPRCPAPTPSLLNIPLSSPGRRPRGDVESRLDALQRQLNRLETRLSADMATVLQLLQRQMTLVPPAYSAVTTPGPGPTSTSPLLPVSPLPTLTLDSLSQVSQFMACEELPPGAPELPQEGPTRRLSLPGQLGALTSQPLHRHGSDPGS

| Structure (SMILES) | hERG current change (%, negative = inhibition) at 1uM [%] |
| --- | --- |
| COc1ccc(CCNC(=O)C2CCN(S(=O)(=O)c3cc(OC)ccc3OC)CC2)cc1 | 5.93 |
| COCCNC(=O)C(c1cccs1)N(C(=O)Cn1nnc2ccccc21)c1ccccc1 (stereo not shown) | 2.32 |
| Cc1cccc(NC(=S)NCC(c2cccnc2)N(C)C)c1 (stereo not shown) | 10.4 |
| CC(=O)Nc1ccccc1-c1nc2ccc(C(=O)N3CCN(c4cccc(C)c4)C(C)C3)cc2[nH]c1=O (stereo not shown) | 12.3 |
| COc1ccccc1OCC(=O)Nc1ccc(S(=O)(=O)Nc2onc(C)c2C)cc1 | 13.8 |
| COc1cccc(NC(=O)C2CCN(C(=O)[C@@H]3Cc4ccccc4CN3)CC2)c1 | 0.0621 |
| CCOC(=O)c1nnn2c1nc(N1CCCCC1)c1ccccc12 | 9.11 |
| Cc1sc2nc(CSC(C)C(=O)Nc3ccc(C#N)cc3)[nH]c(=O)c2c1C (stereo not shown) | 8.63 |
| CC(C)Nc1nc(NNc2nc(Cl)nc(NC(C)(C)C)n2)nc(NC(C)C)n1 | 20.2 |
| O=C(C(=O)N1CCN(c2cccc(Cl)c2)CC1)N1CCCCC1 | 12.1 |
| Cc1ccn(C(=O)c2cc3ccccc3oc2=O)n1 | 5.6 |
| COc1ccc(OC)c2c1cc(C(=O)N[C@H](C(=O)N1CCC(C(=O)O)CC1)C(C)C)n2C | 9.57 |
| COc1ccc(S(=O)(=O)N2CCc3ccccc3C2)cc1 | 16.2 |
| O=c1c2ccccc2c(C=NC2CCS(=O)(=O)C2)c(O)n1-c1ccccc1 (stereo not shown) | 12.9 |
| COC(=O)NNC(=O)COc1cc(C)ccc1C | 11.5 |
| N#C/C(=C\c1ccc[nH]1)C(=O)Nc1ccccc1[N+](=O)[O-] | 11.9 |
| O=S(=O)(c1cccc(C(F)(F)F)c1)N1CCN(c2nnnn2-c2ccccc2)CC1 | 11.9 |
| CC1CCCC(C)N1CCCNC(=O)Cn1cc2c(n1)CCCC2 (stereo not shown) | 3.89 |
| CCC(=O)Nc1ccc(-c2ccc(N3CCN(C)CC3)nn2)cc1 | 5.37 |
| Cc1c(Br)cc(C(=O)N2CCCC2)c(C)c1C | 10.2 |
| CCOCCCN(C)C1CCN(C(=O)c2oc3ccccc3c2NC(=O)COc2cccc(C)c2)CC1 | -62.4 |
| CCOC(=O)N1CCN(c2cc(C)nc3nc(C)nn23)CC1 | -22 |
| O=C(NCc1cccnc1)C1CCN(S(=O)(=O)c2cccc(C(F)(F)F)c2)CC1 | 12.4 |
| Cc1ccc(S(=O)(=O)N2CCN(C(=O)CCC(=O)NCc3cccc(C(F)(F)F)c3)CC2)cc1 | -10.1 |
| CCOC(=O)c1ccc2nc(CCC(=O)N[C@H](C(=O)OC)C(C)C)c(=O)n(CC)c2c1 | 10.4 |
| COc1ccc(C2NCCc3sccc32)cc1 (stereo not shown) | 4.92 |
| O=C(CN1C(=O)NC2(CCCc3ccccc32)C1=O)N1CCN(C(=O)c2ccco2)CC1 (stereo not shown) | 1.49 |
| CCCCNC(=O)c1nn2c(C(F)(F)F)cc(-c3ccc(OC)cc3)nc2c1Br | 6.48 |

| Structure (SMILES) | hERG current change (%, negative = inhibition) at 1uM [%] |
| --- | --- |
| COc1ccc(OC)c(S(=O)(=O)N(C)CC(=O)Nc2ccccc2OC)c1 | 4.37 |
| CC1Sc2ccc(S(=O)(=O)N3CCC(C(=O)Nc4ccc(Cl)cc4)CC3)cc2NC1=O (stereo not shown) | 14.5 |
| O=[N+]([O-])c1ccc(Cc2ccncc2)cc1 | -2.68 |
| COc1cc(Br)c(-c2sc(Nc3ccccc3)n[n+]2-c2ccccc2)cc1OC.[Cl-] | -5.97 |
| Cc1[nH]nc(N=CC2=C(O)CC(C)(C)CC2=O)c1-c1ccc(Cl)cc1 | -5.63 |
| NC(=S)NNC(=S)Nc1ccccc1 | 11.2 |
| CCOC(=O)c1oc2ccc(S(=O)(=O)n3nc(-c4ccc(OC)cc4)cc3N)cc2c1C | 18.1 |
| COc1cc(OC)cc(C(=O)N[C@H](C(=O)Nc2ccc(NC(C)=O)cc2)C(C)C)c1 | 11.6 |
| Cc1csc(SCC(=O)c2cc(C)n(Cc3cccs3)c2C)n1 | 11.5 |
| O=C(CNC(=O)c1ccccn1)N=Nc1c(O)[nH]c2ccccc12 | 15.5 |
| CN(C1=NC(=O)C(CC(=O)O)S1)c1ccc(O)cc1 (stereo not shown) | 9.82 |
| O=C(O)CC(CNS(=O)(=O)c1cccc2nsnc12)c1ccccc1 (stereo not shown) | 7.21 |
| CN(C)C(=O)c1c(C(F)(F)F)nn(C)c1Cl | 13.7 |
| Cc1ccccc1C(=O)Oc1ccc2ccc(O)cc2c1 | 14.7 |
| O=C(O)c1ccc2c(=O)n(-c3ccc(F)c(Cl)c3)c(=S)[nH]c2c1 | 11.1 |
| Cc1ccc2oc(C(=O)N3CCC(C(N)=O)(N4CCCCC4)CC3)c(C)c2c1 | 2.03 |
| O=C(Cn1c(=O)oc2ccccc21)Nc1ccccc1C(F)(F)F | 18.4 |
| O=C1Nc2ccc([N+](=O)[O-])cc2OC1CCN1CCOCC1 (stereo not shown) | 6.64 |
| CN(C)c1ccc(NC(=O)CN2CCC(NC(=O)C3CCCCC3)CC2)cc1 | 10.9 |
| COc1ccccc1/C=C(\NC(=O)c1ccc(OC)c(OC)c1)C(=O)Nc1cc([N+](=O)[O-])ccc1C | 13.9 |
| COc1ccc(C(=S)N2CCCC2)cc1Br | 9.24 |
| O=C(c1ccco1)N1CCN(C(=O)c2cnn(-c3ccc(Cl)cc3)c2C2CCNCC2)CC1 | 13.7 |
| COCCn1c(SCC(=O)NNC(=O)c2cc(Cl)ccc2OC)nnc1-c1ccncc1 | 9.64 |
| CCCn1c(N)c(N(CCOC)C(=O)CSc2ccccc2)c(=O)[nH]c1=O | 10.2 |
| CCCCc1cc(=O)oc2c(CN3CCCC3)c(O)c(Cl)cc12 | 0.161 |
| Cc1occc1C(=O)Nc1nn[nH]n1 | 11.3 |
| CCCOc1ccc(C(=O)Nc2ccc(C)cc2[N+](=O)[O-])cc1 | 2.96 |
